# This is one part of the list.
# Biological target: T1, MBP-FoxP1dN (Mus musculus, UniProt P58462 326-579)
# T1 sequence: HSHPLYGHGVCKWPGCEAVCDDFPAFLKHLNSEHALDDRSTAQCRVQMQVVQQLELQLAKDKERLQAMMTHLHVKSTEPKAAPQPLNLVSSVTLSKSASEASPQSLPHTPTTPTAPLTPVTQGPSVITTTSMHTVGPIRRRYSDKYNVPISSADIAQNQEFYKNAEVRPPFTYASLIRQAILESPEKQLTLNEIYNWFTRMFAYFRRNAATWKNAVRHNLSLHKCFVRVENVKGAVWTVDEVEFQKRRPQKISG
# Experiment: PD-seq (MBP pull-down with sequencing); 20 mM Tris-HCl pH 7.5, 100 mM NaCl, 1.5 mM MgCl2, 0.4 uM protein, 0.1 uM dsDNA library, 30 min, room temperature, amylose pull-down; high values mean tight binding
# Settings: protein: recombinant; tags: His6-MBP; chain copies: 2; dsDNA, one strand shown
# How it was run: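 His6-MBP-tagged mouse FoxP3 or FoxP1 fragment lacking the N-terminus, expressed in E. coli, was mixed at 0.4 µM with 0.1 µM Klenow-filled double-stranded degenerate DNA library. Incubation was 30 min at room temperature in Tris pH 7.5 buffer with NaCl and MgCl2. Complexes were caught on amylose resin and washed three times; DNA was released with proteinase K, PCR-barcoded and Illumina-sequenced. Binding is reads-per-million enrichment, pull-down over input, with replicates pooled.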
row,Sequence,binding signal
1,GATGATTGTTCTCCCAGCTGATGAATTAGGGGAATCGAGTAAACAAATTTTCCTAATCTTTCTGTTCAAGCGCCATCTAC,0.899 RPM ratio (pull-down/input)
2,GATGATTGTTCTCCCAGCTGATGAATTAAGTCAATCGAGTAAACAAATTTTCCTAATCTTTCTGTTCAAGCGCCATCTAC,1.15 RPM ratio (pull-down/input)
3,GATGATTGTTCTCCCAGCTGATGAATTATTATTTTCGAGTAAACAAATTTTCCTAATCTTTCTGTTCAAGCGCCATCTAC,3.1 RPM ratio (pull-down/input)
4,GATGATTGTTCTCCCAGCTGATGAATTTCCCAACTCGAGTAAACAAATTTTCCTAATCTTTCTGTTCAAGCGCCATCTAC,0.84 RPM ratio (pull-down/input)
5,GATGATTGTTCTCCCAGCTGATGAATTTATGACTTCGAGTAAACAAATTTTCCTAATCTTTCTGTTCAAGCGCCATCTAC,1.13 RPM ratio (pull-down/input)
6,GATGATTGTTCTCCCAGCTGATGAATTTACCAGTTCGAGTAAACAAATTTTCCTAATCTTTCTGTTCAAGCGCCATCTAC,1.22 RPM ratio (pull-down/input)
7,GATGATTGTTCTCCCAGCTGATGAATTTCAGTCGTCGAGTAAACAAATTTTCCTAATCTTTCTGTTCAAGCGCCATCTAC,0.767 RPM ratio (pull-down/input)
8,GATGATTGTTCTCCCAGCTGATGAATTTCTAGTATCGAGTAAACAAATTTTCCTAATCTTTCTGTTCAAGCGCCATCTAC,0.933 RPM ratio (pull-down/input)
9,GATGATTGTTCTCCCAGCTGATGAATTCACGCCATCGAGTAAACAAATTTTCCTAATCTTTCTGTTCAAGCGCCATCTAC,1.01 RPM ratio (pull-down/input)
10,GATGATTGTTCTCCCAGCTGATGAATTTGTTTAGTCGAGTAAACAAATTTTCCTAATCTTTCTGTTCAAGCGCCATCTAC,2.24 RPM ratio (pull-down/input)
11,GATGATTGTTCTCCCAGCTGATGAATTAGAGCGTTCGAGTAAACAAATTTTCCTAATCTTTCTGTTCAAGCGCCATCTAC,0.924 RPM ratio (pull-down/input)
12,GATGATTGTTCTCCCAGCTGATGAATTAGCCCTTTCGAGTAAACAAATTTTCCTAATCTTTCTGTTCAAGCGCCATCTAC,0.827 RPM ratio (pull-down/input)
13,GATGATTGTTCTCCCAGCTGATGAATTACCGAAGTCGAGTAAACAAATTTTCCTAATCTTTCTGTTCAAGCGCCATCTAC,0.924 RPM ratio (pull-down/input)
14,GATGATTGTTCTCCCAGCTGATGAATTTATAAGATCGAGTAAACAAATTTTCCTAATCTTTCTGTTCAAGCGCCATCTAC,1.13 RPM ratio (pull-down/input)
15,GATGATTGTTCTCCCAGCTGATGAATTAATCTATTCGAGTAAACAAATTTTCCTAATCTTTCTGTTCAAGCGCCATCTAC,0.999 RPM ratio (pull-down/input)
16,GATGATTGTTCTCCCAGCTGATGAATTAGACCTGTCGAGTAAACAAATTTTCCTAATCTTTCTGTTCAAGCGCCATCTAC,0.889 RPM ratio (pull-down/input)
17,GATGATTGTTCTCCCAGCTGATGAATTGCCTGATTCGAGTAAACAAATTTTCCTAATCTTTCTGTTCAAGCGCCATCTAC,0.995 RPM ratio (pull-down/input)
18,GATGATTGTTCTCCCAGCTGATGAATTTCTGGTCTCGAGTAAACAAATTTTCCTAATCTTTCTGTTCAAGCGCCATCTAC,0.782 RPM ratio (pull-down/input)
19,GATGATTGTTCTCCCAGCTGATGAATTATATACATCGAGTAAACAAATTTTCCTAATCTTTCTGTTCAAGCGCCATCTAC,1.43 RPM ratio (pull-down/input)
20,GATGATTGTTCTCCCAGCTGATGAATTATCATGCTCGAGTAAACAAATTTTCCTAATCTTTCTGTTCAAGCGCCATCTAC,0.994 RPM ratio (pull-down/input)
21,GATGATTGTTCTCCCAGCTGATGAATTTAGGGCTTCGAGTAAACAAATTTTCCTAATCTTTCTGTTCAAGCGCCATCTAC,0.889 RPM ratio (pull-down/input)

row,Sequence,binding signal
1,GATGATTGTTCTCCCAGCTGATGAATTTTCTCCGTCGAGTAAACAAATTTTCCTAATCTTTCTGTTCAAGCGCCATCTAC,0.914 RPM ratio (pull-down/input)
2,GATGATTGTTCTCCCAGCTGATGAATTCGAGTAATCGAGTAAACAAATTTTCCTAATCTTTCTGTTCAAGCGCCATCTAC,1.4 RPM ratio (pull-down/input)
3,GATGATTGTTCTCCCAGCTGATGAATTGGCCGCGTCGAGTAAACAAATTTTCCTAATCTTTCTGTTCAAGCGCCATCTAC,0.925 RPM ratio (pull-down/input)
4,GATGATTGTTCTCCCAGCTGATGAATTCGTTTGATCGAGTAAACAAATTTTCCTAATCTTTCTGTTCAAGCGCCATCTAC,0.923 RPM ratio (pull-down/input)
5,GATGATTGTTCTCCCAGCTGATGAATTACTGGCCTCGAGTAAACAAATTTTCCTAATCTTTCTGTTCAAGCGCCATCTAC,0.886 RPM ratio (pull-down/input)
6,GATGATTGTTCTCCCAGCTGATGAATTGCCTCGATCGAGTAAACAAATTTTCCTAATCTTTCTGTTCAAGCGCCATCTAC,0.939 RPM ratio (pull-down/input)
7,GATGATTGTTCTCCCAGCTGATGAATTGGTTATCTCGAGTAAACAAATTTTCCTAATCTTTCTGTTCAAGCGCCATCTAC,1 RPM ratio (pull-down/input)
8,GATGATTGTTCTCCCAGCTGATGAATTGATGATTTCGAGTAAACAAATTTTCCTAATCTTTCTGTTCAAGCGCCATCTAC,1.34 RPM ratio (pull-down/input)
9,GATGATTGTTCTCCCAGCTGATGAATTATGGTGCTCGAGTAAACAAATTTTCCTAATCTTTCTGTTCAAGCGCCATCTAC,0.966 RPM ratio (pull-down/input)
10,GATGATTGTTCTCCCAGCTGATGAATTGGAACTTTCGAGTAAACAAATTTTCCTAATCTTTCTGTTCAAGCGCCATCTAC,0.834 RPM ratio (pull-down/input)
11,GATGATTGTTCTCCCAGCTGATGAATTGGCACTTTCGAGTAAACAAATTTTCCTAATCTTTCTGTTCAAGCGCCATCTAC,0.943 RPM ratio (pull-down/input)
12,GATGATTGTTCTCCCAGCTGATGAATTGGCGTGATCGAGTAAACAAATTTTCCTAATCTTTCTGTTCAAGCGCCATCTAC,0.928 RPM ratio (pull-down/input)
13,GATGATTGTTCTCCCAGCTGATGAATTTCCTGAATCGAGTAAACAAATTTTCCTAATCTTTCTGTTCAAGCGCCATCTAC,0.927 RPM ratio (pull-down/input)
14,GATGATTGTTCTCCCAGCTGATGAATTAGAAAAGTCGAGTAAACAAATTTTCCTAATCTTTCTGTTCAAGCGCCATCTAC,0.926 RPM ratio (pull-down/input)
15,GATGATTGTTCTCCCAGCTGATGAATTTAGACTATCGAGTAAACAAATTTTCCTAATCTTTCTGTTCAAGCGCCATCTAC,1.16 RPM ratio (pull-down/input)
16,GATGATTGTTCTCCCAGCTGATGAATTAGACGGGTCGAGTAAACAAATTTTCCTAATCTTTCTGTTCAAGCGCCATCTAC,0.832 RPM ratio (pull-down/input)
17,GATGATTGTTCTCCCAGCTGATGAATTAATCGTCTCGAGTAAACAAATTTTCCTAATCTTTCTGTTCAAGCGCCATCTAC,0.872 RPM ratio (pull-down/input)
18,GATGATTGTTCTCCCAGCTGATGAATTTCTACCCTCGAGTAAACAAATTTTCCTAATCTTTCTGTTCAAGCGCCATCTAC,0.786 RPM ratio (pull-down/input)
19,GATGATTGTTCTCCCAGCTGATGAATTAGGGGTCTCGAGTAAACAAATTTTCCTAATCTTTCTGTTCAAGCGCCATCTAC,0.797 RPM ratio (pull-down/input)
20,GATGATTGTTCTCCCAGCTGATGAATTTTCTTGGTCGAGTAAACAAATTTTCCTAATCTTTCTGTTCAAGCGCCATCTAC,0.956 RPM ratio (pull-down/input)
21,GATGATTGTTCTCCCAGCTGATGAATTTTTTGCATCGAGTAAACAAATTTTCCTAATCTTTCTGTTCAAGCGCCATCTAC,1.45 RPM ratio (pull-down/input)

row,Sequence,binding signal
1,GATGATTGTTCTCCCAGCTGATGAATTGTGTGTTTCGAGTAAACAAATTTTCCTAATCTTTCTGTTCAAGCGCCATCTAC,1.57 RPM ratio (pull-down/input)
2,GATGATTGTTCTCCCAGCTGATGAATTGTCCTCATCGAGTAAACAAATTTTCCTAATCTTTCTGTTCAAGCGCCATCTAC,1.08 RPM ratio (pull-down/input)
3,GATGATTGTTCTCCCAGCTGATGAATTTCAAAGGTCGAGTAAACAAATTTTCCTAATCTTTCTGTTCAAGCGCCATCTAC,0.752 RPM ratio (pull-down/input)
4,GATGATTGTTCTCCCAGCTGATGAATTGGACGGCTCGAGTAAACAAATTTTCCTAATCTTTCTGTTCAAGCGCCATCTAC,0.79 RPM ratio (pull-down/input)
5,GATGATTGTTCTCCCAGCTGATGAATTCCATGAATCGAGTAAACAAATTTTCCTAATCTTTCTGTTCAAGCGCCATCTAC,0.935 RPM ratio (pull-down/input)
6,GATGATTGTTCTCCCAGCTGATGAATTGCTTCGCTCGAGTAAACAAATTTTCCTAATCTTTCTGTTCAAGCGCCATCTAC,0.992 RPM ratio (pull-down/input)
7,GATGATTGTTCTCCCAGCTGATGAATTGGAGATTTCGAGTAAACAAATTTTCCTAATCTTTCTGTTCAAGCGCCATCTAC,0.827 RPM ratio (pull-down/input)
8,GATGATTGTTCTCCCAGCTGATGAATTTAGCCCGTCGAGTAAACAAATTTTCCTAATCTTTCTGTTCAAGCGCCATCTAC,0.795 RPM ratio (pull-down/input)
9,GATGATTGTTCTCCCAGCTGATGAATTGACACGCTCGAGTAAACAAATTTTCCTAATCTTTCTGTTCAAGCGCCATCTAC,1.21 RPM ratio (pull-down/input)
10,GATGATTGTTCTCCCAGCTGATGAATTTCACATCTCGAGTAAACAAATTTTCCTAATCTTTCTGTTCAAGCGCCATCTAC,0.829 RPM ratio (pull-down/input)
11,GATGATTGTTCTCCCAGCTGATGAATTAGATGCATCGAGTAAACAAATTTTCCTAATCTTTCTGTTCAAGCGCCATCTAC,1.66 RPM ratio (pull-down/input)
12,GATGATTGTTCTCCCAGCTGATGAATTTTACATCTCGAGTAAACAAATTTTCCTAATCTTTCTGTTCAAGCGCCATCTAC,0.88 RPM ratio (pull-down/input)
13,GATGATTGTTCTCCCAGCTGATGAATTAACTAAATCGAGTAAACAAATTTTCCTAATCTTTCTGTTCAAGCGCCATCTAC,1.12 RPM ratio (pull-down/input)
14,GATGATTGTTCTCCCAGCTGATGAATTCTTTCACTCGAGTAAACAAATTTTCCTAATCTTTCTGTTCAAGCGCCATCTAC,0.923 RPM ratio (pull-down/input)
15,GATGATTGTTCTCCCAGCTGATGAATTGATGCAGTCGAGTAAACAAATTTTCCTAATCTTTCTGTTCAAGCGCCATCTAC,1.41 RPM ratio (pull-down/input)
16,GATGATTGTTCTCCCAGCTGATGAATTAACACCATCGAGTAAACAAATTTTCCTAATCTTTCTGTTCAAGCGCCATCTAC,1.2 RPM ratio (pull-down/input)
17,GATGATTGTTCTCCCAGCTGATGAATTTTTTACGTCGAGTAAACAAATTTTCCTAATCTTTCTGTTCAAGCGCCATCTAC,0.984 RPM ratio (pull-down/input)
18,GATGATTGTTCTCCCAGCTGATGAATTGGCCCCATCGAGTAAACAAATTTTCCTAATCTTTCTGTTCAAGCGCCATCTAC,0.877 RPM ratio (pull-down/input)
19,GATGATTGTTCTCCCAGCTGATGAATTGCTTTTATCGAGTAAACAAATTTTCCTAATCTTTCTGTTCAAGCGCCATCTAC,1.26 RPM ratio (pull-down/input)
20,GATGATTGTTCTCCCAGCTGATGAATTTAGTATATCGAGTAAACAAATTTTCCTAATCTTTCTGTTCAAGCGCCATCTAC,1.29 RPM ratio (pull-down/input)
21,GATGATTGTTCTCCCAGCTGATGAATTGTTAAACTCGAGTAAACAAATTTTCCTAATCTTTCTGTTCAAGCGCCATCTAC,1.1 RPM ratio (pull-down/input)

# From publication PMC12820563, “FoxP3 forms a head-to-head dimer in vivo and stabilizes its multimerization on adjacent microsatellites”
